Measured values published in the supplement of paper PMC3334620.
The full ranking holds about 33,000 sequences; the median of “E-score (-0.5 to 0.5)” is about -0.036, and the highest 2% start at about 0.37. This is one part of the list.

Target: T1, Yer064c (UniProt P40041)
T1 sequence: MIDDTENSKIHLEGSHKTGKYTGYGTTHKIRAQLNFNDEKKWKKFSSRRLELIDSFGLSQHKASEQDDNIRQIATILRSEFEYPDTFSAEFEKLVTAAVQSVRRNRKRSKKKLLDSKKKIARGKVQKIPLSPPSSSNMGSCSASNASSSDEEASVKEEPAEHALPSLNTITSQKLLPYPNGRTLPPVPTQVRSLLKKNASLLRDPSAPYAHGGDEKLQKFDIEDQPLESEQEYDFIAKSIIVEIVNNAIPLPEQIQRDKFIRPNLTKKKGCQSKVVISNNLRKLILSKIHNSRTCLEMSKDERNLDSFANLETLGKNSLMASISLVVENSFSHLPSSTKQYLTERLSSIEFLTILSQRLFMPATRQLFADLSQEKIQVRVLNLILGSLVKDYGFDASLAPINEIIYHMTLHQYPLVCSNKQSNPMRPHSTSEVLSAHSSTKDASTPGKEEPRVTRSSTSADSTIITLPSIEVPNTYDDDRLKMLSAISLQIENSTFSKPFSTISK
Test: PBM E-score (8-mer binding enrichment) (E-score (-0.5 to 0.5)); higher = stronger / more preferred TF binding; most listed sequences are background and not binding sites
Details: protein concentration: 200 nM; construct: GST-full length
Procedure, shortened: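 Yeast transcription factors carrying a GST tag, as full-length proteins or DNA-binding domains, were produced by PURExpress in vitro transcription/translation. About 100-200 nM protein was applied to universal all-10-mer Agilent arrays, double-stranded by primer extension on fresh or once-stripped slides. Bound protein was detected with fluorescent anti-GST, and scans were normalised with masliner. The Universal PBM Analysis Suite gave each ungapped eight-base word, pooled with its reverse complement, an E-score, a modified Wilcoxon-Mann-Whitney statistic.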

Sequence	PBM E-score
CTTATCAA	0.132
ATGGATTG	0.19
CAAGGTAA	-0.036
AGTACTAC	0.173
GCTCTACA	-0.134
GGCTGGCA	-0.301
AGAGAAGC	-0.0756
AACCATCA	0.226
ATTCATAC	0.278
ATGAGTGC	0.226
ATGCAAAT	-0.0663
CTAAAAAA	0.163
ACAACAGG	-0.041
GATTTTAA	0.00314
CTGCACAG	-0.0498
AGTTTTGC	0.0632
CGGACTAA	0.342
AGGGATGG	-0.114
GGGAAGAC	0.187
TAGCTAAA	0.0446
ACGACGCA	-0.135
AATCCCCA	-0.131

Sequence	PBM E-score
CACACCAG	-0.0384
CTTCGGGC	-0.184
GGTACTAC	0.166
GCGAAGCA	-0.156
CCACTAAG	0.0593
AGTGGCAT	-0.0556
AGTAGCCC	-0.0847
CGCAGTTC	-0.194
GGAGGACC	-0.37
TATTGGGA	0.0701
AGATTTTA	0.172
AGGACTGC	0.13
AGACTCAG	0.434
CCCGATTA	0.0668
CACCGATG	0.0254
GAATTCAC	-0.139
GTATCCAA	-0.0305
CTCGTTGA	0.103
TCCAATCA	0.126
AAATTAGA	0.177
CCATGTGA	0.0726
CACCGGAA	-0.0773

Sequence	PBM E-score
GAAAGTCC	-0.215
ATTGACAG	0.1
ACCTTTGA	0.15
ATTACGCG	0.00024
ACGTCATG	0.21
ACCAGCGA	-0.136
CGGGTAAC	-0.0478
GCAATCGA	-0.0206
ATCCTCAA	0.198
CAGCCGCA	-0.202
ACAAGGGT	-0.172
TCATGGAA	0.175
AGTAGCAC	-0.0101
GGAACTCA	0.191
ACATGGGT	0.147
AAGGATAG	0.0139
CTGACCGC	-0.071
TCATAGGA	0.346
TAAAGAAA	0.0535
AGCTACGC	-0.2
ACGAACGC	-0.112
ACGTTAGG	-0.158

Sequence	PBM E-score
ACTGAAAA	-0.0436
GGTAGTCA	0.479
ATCACCAG	0.0995
CGCGGATA	0.139
ACGCCTCG	-0.28
CTTAGCTA	0.0847
CTTCTCTC	-0.0307
GCGTTGTA	-0.156
CCATGAAA	-0.0342
CTAGCCAC	-0.097
GTATTCGA	-0.351
GTGGGCGA	0.0934
ACGGATCT	-0.275
CCGGAGAC	0.00524
ACAGACCA	-0.00024
CAGAGGAC	0.0554
ACTAGTAT	0.227
ATAGAACC	0.0363
AGAAAACG	-0.0675
GGACTCCA	0.176
